Like-named read-outs stand apart in the source and are kept apart here.
Key:
hPD-L1 [1] = target: T1, hPD-L1 (Homo sapiens, UniProt Q9NZQ7); assay: Biacore kinetic analysis of primary Z variants, hPD-L1; assay type: binding; details: His6-tagged Z variants over immobilized hPD-L1; 1:1 model
Method: Biacore kinetic and specificity analysis: Kinetic constants (ka and kd) and affinities (KD) for hPD-L1 were determined for 14 Hiss-tagged Z variants using a Biacore 2000 instrument (GE Healthcare). Some of the Z variants were also tested for binding against the sequence-related proteins hPD-L2, hB7-H3, hB7-H4 and mPD-L1 (mouse PD-L1 Fc Chimera, R&D Systems, cat. no. 1019-B7).
(§1) hPD-L1, hPD-L2, hB7-H3, hB7-H4 and mPD-L1 were immobilized in separate flow cells on the carboxylated dextran layer of different CM5 chip surfaces (GE Healthcare, cat. no. BR100012). The immobilization was performed using amine coupling chemistry according to the manufacturer's protocol and using HBS-EP as running buffer (0.01 M HEPES pH 7.4, 0.15 M NaCl, 3 mM EDTA, 0.005% v/v Surfactant P20, GE Healthcare, cat. no. BR100188). […] One flow cell surface on each chip was activated and deactivated for use as blank during analyte injections. In the kinetic experiment, HBS-EP was used as running buffer and the flow rate was 50 μl/min. The analytes, i.e. the Z variants, were each diluted in HBS-EP buffer within a concentration range of 1000 to 0.01 nM and injected for 5 min, followed by dissociation in running buffer for 15-25 min. After dissociation, the surfaces were regenerated with one or two injections of 0.1% SDS. Kinetic constants were calculated from the sensorgrams using the Langmuir 1:1 model of BiaEvaluation software 4.1 (GE Healthcare).

[2] = test system: PD-L1 expressing THP-1 cells (IFNγ stimulated); assay: Cell binding analysis by FACS, THP-1 cells; assay type: cell-based; details: IFNγ stimulated THP-1 cells; 10 μg/ml His6-tagged Z variant (antibody 1 μg/ml); normalized against Z13091
Method: Cell binding analysis by FACS: The potential of Z variants to bind PD-L1 expressing cells was investigated using Fluorescence Activated Cell Sorting (FACS). THP-1 cells, cultivated in RPMI (Lonza, cat. no. BE12-702F) containing 10% FBS were stimulated with 10 ng/ml IFNg (R&D Systems, cat. no. 285-IF-100) overnight which results in up-regulation of PD-L1. 150,000 stimulated and unstimulated cells were pipetted per well of a v-bottomed 96 well plate (Nunc, cat. no. 277143) and the cells in the plate were subsequently pelleted at 400 g for 3 min at RT. The supernatants were removed and the cells were resuspended in 100 μl PBS plus 2.5% FBS (staining buffer) containing 10 μg/ml of the different His-tagged Z variants. […] Cells incubated with buffer alone were used as negative controls. The cells were incubated for 1 h at 8° C. in the dark, washed twice with 100 μl staining buffer and resuspended in 100 μl of staining buffer containing a goat anti-Z antibody (produced in house) at a concentration of 5 μg/ml. Cells stained with the positive control were treated with buffer only. The cells were incubated for 1 h at 8° C. in the dark, washed twice with 100 μl staining buffer and resuspended in 100 μl of staining buffer containing an Alexa Fluor 647 chicken anti-goat IgG antibody (Life technologies, cat. no. A21469) or an Alexa Fluor 647 goat anti-mouse IgG antibody (Life technologies cat. no. A21236). The cells were once again incubated for 1 h at 8° C. in the dark, washed twice with 100 μl staining buffer and resuspended in 200 μl of staining buffer. Data from 10,000 cells were obtained using a FACS Calibur ([…]) and the data was analyzed using Flowing software 2.5.0 (Turku University). Mean fluorescence intensity (MFI) was used as a read out of binding capacity.

hPD-L1 binding to hPD-1 [3] = target: T2, hPD-L1 binding to hPD-1 (Homo sapiens, UniProt Q9NZQ7); assay: AlphaLISA blocking assay (Example 3); details: His6-tagged Z variants 250 nM to 12 pM; 10 nM biotinylated hPD-L1; read-out: IC50 (M), inhibiting binding of PD-L1 to PD-1
T2 construct: 1086-PD-050 (hPD-1)
Method: (§2) AlphaLISA blocking assay: The potential of Z variants to inhibit binding of PD-L1 to PD-1 was analyzed by AlphaLISA and recordings in an EnSpire multiplate reader 2300 (Perkin Elmer). hPD-1 (human PD-1 Fc-chimera; R&D Systems, cat. no. 1086-PD-050) was immobilized on AlphaLISA Acceptor beads (Perkin Elmer, cat. no. 6772002) according to the manufacturer's recommendations. Stepwise serial dilutions 1:3 of Hiss-tagged Z variants to final concentrations of 250 nM to 12 pM were made in a 384 plate (Perkin Elmer, cat. no. 6005350) and incubated for 1 h with 10 nM biotinylated hPD-L1 in AlphaLISA buffer (Perkin Elmer, cat. no. AL000F). hPD-1-coated Acceptor beads were added to a final concentration of 10 μg/ml and incubated for 1 h. Finally, streptavidin coated Donor beads (Perkin Elmer, cat. no. 6772002) were added to a final concentration of 40 μg/ml and incubated for 30 min. All incubations were performed at RT in the dark. The plate was analyzed in the EnSpire instrument and the IC50 values were calculated using GraphPad Prism 5.

[4] = Circular dichroism (CD) spectroscopy, variable temperature measurement; assay type: physicochemical; details: His6-tagged Z variants in PBS; VTM to 80° C.
Method: Circular dichroism (CD) spectroscopy analysis: Two purified Z variants with a C-terminal cysteine, Z15168-Cys (SEQ ID NO:809) and Z15169-Cys (SEQ ID NO:810), were diluted to 0.5 mg/ml in 20 mM HEPES, 1 mM EDTA, pH 7.2. For each diluted Z variant, a CD spectrum at 250-195 nm was obtained at 20° C. In addition, a variable temperature measurement (VTM) was performed to determine the melting temperature (Tm). In the VTM, the absorbance was measured at 221 nm while the temperature was raised from 20 to 90° C., with a temperature slope of 5° C./min. A new CD spectrum was obtained at 20° C. after the heating procedure in order to study the refolding ability of the Z variants. The CD measurements were performed on a Jasco J-810 spectropolarimeter (Jasco Scandinavia AB) using a cell with an optical path length of 1 mm.
Circular dichroism (CD) spectroscopy analysis: A subset of the purified Hiss-tagged Z variants were analyzed by CD spectroscopy as described in Example 3, but with the exceptions that the analysis buffer was PBS and that the temperature was raised to 80° C. in the VTM.

hPD-L1 binding to hPD-1 [5] = target: T2, hPD-L1 binding to hPD-1; assay: AlphaLISA blocking assay (Example 7); details: His6-tagged Z variants 250 nM to 4 pM; 8 nM biotinylated hPD-L1; read-out: IC50 AlphaLISA (M), blocking the PD-1/PD-L1 interaction
Method: as §2, with “Stepwise serial dilutions 1:3 of Hiss-tagged Z variants to final concentrations of 250 nM to 12 pM were made in a 384 plate (Perkin Elmer, cat. no. 6005350) and incubated for 1 h with 10 nM biotinylated hPD-L1 in AlphaLISA buffer (Perkin Elmer, cat. no. AL000F). hPD-1-coated Acceptor beads were added to a final concentration of 10 μg/ml and incubated for 1 h.” left out
Exception 2: hPD-1-coated Acceptor beads were added to a final concentration of 10 μg/ml and incubated for 50 min.

RhPD-L1 = assay: Biacore kinetic analysis of maturated Z variants, RhPD-L1; assay type: binding, rhesus monkey
Method: as §1
(§3) Biacore kinetic and specificity analysis: Kinetic constants (ka and kd) and affinities (KD) for human PD-L1 and rhesus monkey PD-L1 (RhPD-L1; rhesus PD-L1/Fc Chimera, Sino Biological Inc., cat. no. 90251-C02H) were determined for 24 matured Hiss-tagged Z variants (specified in Example 6). The Z variants were also tested for binding against the sequence-related proteins hPD-L2, hB7-H3 and hB7-H4. The Biacore analyses were performed essentially as described in Example 3, however a flow rate of 30 μl/min was used. […] In a first binding kinetic analysis, the 24 Z variants were injected at concentrations of 5 and 50 nM over chips immobilized with hPD-L1 and RhPD-L1, respectively. […] In the specificity test, i.e. the binding analysis against hPD-L2, hB7-H3 and hB7-H4, the 24 Z variants were injected at a concentration of 500 nM.

hPD-L1 [6] = target: T1, hPD-L1; assay: Biacore kinetic analysis of maturated Z variants, hPD-L1; assay type: binding
Method: as §1, §3

[7] = ranking experiment, His6-tagged Z variants at 5 and 50 nM, 1:1 model, read-out: RhPD-L1 KD (M), approximate affinity constant
[8] = ranking experiment, His6-tagged Z variants at 5 and 50 nM, 1:1 model, read-out: hPD-L1 KD (M), approximate affinity constant
[9] = His6-tagged Z variants at 135, 45, 15, 5 and 1.67 nM
[10] = His6-tagged Z variants at 135, 45, 15, 5 and 1.67 nM, read-out: RhPD-L1 KD
[11] = His6-tagged Z variants at 135, 45, 15, 5 and 1.67 nM, read-out: hPD-L1 KD

T1 sequence (Q9NZQ7 19-290): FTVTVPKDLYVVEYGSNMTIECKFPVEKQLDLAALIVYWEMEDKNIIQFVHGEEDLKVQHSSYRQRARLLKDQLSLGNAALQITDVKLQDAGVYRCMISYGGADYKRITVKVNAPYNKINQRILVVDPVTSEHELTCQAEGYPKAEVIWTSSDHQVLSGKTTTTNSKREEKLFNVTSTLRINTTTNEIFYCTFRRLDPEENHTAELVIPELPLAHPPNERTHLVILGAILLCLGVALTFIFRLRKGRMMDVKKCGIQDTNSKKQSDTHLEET
T2 sequence (Q9NZQ7 19-239 limits assumed): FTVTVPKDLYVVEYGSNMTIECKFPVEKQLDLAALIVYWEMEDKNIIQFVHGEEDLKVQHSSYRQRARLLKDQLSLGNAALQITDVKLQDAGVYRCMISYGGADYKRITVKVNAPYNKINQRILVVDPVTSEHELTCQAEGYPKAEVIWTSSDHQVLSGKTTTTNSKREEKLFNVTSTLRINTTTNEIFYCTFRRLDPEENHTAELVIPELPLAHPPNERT

Substance	ka (hPD-L1 [1])	kd (hPD-L1 [1])	IC50 (hPD-L1 binding to hPD-1 [3])	Kd (hPD-L1 [1])	IC50 (hPD-L1 binding to hPD-1 [5])	Kd (RhPD-L1; [7])	Kd (hPD-L1 [6]; [8])	RhPD-L1 kd (RhPD-L1; [9])	Kd (RhPD-L1; [10])	hPD-L1 ka (hPD-L1 [6]; [9])	hPD-L1 kd (hPD-L1 [6]; [9])	Kd (hPD-L1 [6]; [11])	MFI (normalized) [2]	Tm (° C.) [4]	RhPD-L1 ka (RhPD-L1; [9])
Z13154: primary PD-L1 binding Z variant (VDAKYAKERNDAAYEILQLPNLTKRQVWAFIWKLDDDPSQSSELLSEAKKLNDSQAPK; Engineered PD-L1 binding polypeptide)	2.3e+06 M⁻¹ s⁻¹	0.0031 s⁻¹	1.1e-09 M	–	–	–	–	–	–	–	–	–	1.04	–	–
Z13158: primary PD-L1 binding Z variant (VDAKYAKERNDAAFEILQLPNLTNSQHWAFIWKLEDDPSQSSELLSEAKKLNDSQAPK; Engineered PD-L1 binding polypeptide)	670000 M⁻¹ s⁻¹	0.0056 s⁻¹	2.4e-09 M	8.3 nM	–	–	–	–	–	–	–	–	0.91	–	–
Z13147: primary PD-L1 binding Z variant (VDAKYAKERNRAAYEILQLPNLTHQQTWAFIWKLDDDPSQSSELLSEAKKLNDSQAPK; Engineered PD-L1 binding polypeptide)	1e+06 M⁻¹ s⁻¹	0.0017 s⁻¹	5.6e-09 M	1.6 nM	–	–	–	–	–	–	–	–	0.56	–	–
Z13120: primary PD-L1 binding Z variant (VDAKYAKERNRAANEILQLPNLTKGQVWAFIWKLDDDPSQSSELLSEAKKLNDSQAPK; Engineered PD-L1 binding polypeptide)	2e+06 M⁻¹ s⁻¹	0.012 s⁻¹	4.2e-09 M	6 nM	–	–	–	–	–	–	–	–	0.71	–	–
Z17911: maturated PD-L1 binding Z variant (VDAKYAKERNNAAYEILYLPNLTNAQKWAFIWKLDDDPSQSSELLSEAKKLNDSQAPK; Engineered PD-L1 binding polypeptide)	–	–	–	–	5.7e-10 M	2.2e-09 M	3.6e-10 M	0.00042 s⁻¹	2e-10 M	2.3e+06 M⁻¹ s⁻¹	0.00049 s⁻¹	2.1e-10 M	–	59 °C	2.1e+06 M⁻¹ s⁻¹
Z18074: maturated PD-L1 binding Z variant (VDAKYAKERNQAAFEILYLPNLTNAQKWAFIWKLDDDPSQSSELLSEAKKLNDSQAPK; Engineered PD-L1 binding polypeptide)	–	–	–	–	3.1e-10 M	2.9e-09 M	3.6e-10 M	0.00046 s⁻¹	2.7e-10 M	2e+06 M⁻¹ s⁻¹	0.00054 s⁻¹	2.7e-10 M	–	62 °C	1.7e+06 M⁻¹ s⁻¹

Further lines, with some results ahead:

ka (hPD-L1 [1])	kd (hPD-L1 [1])	IC50 (hPD-L1 binding to hPD-1 [3])	Kd (hPD-L1 [1])	IC50 (hPD-L1 binding to hPD-1 [5])	Kd (RhPD-L1; [7])	Kd (hPD-L1 [6]; [8])	RhPD-L1 kd (RhPD-L1; [9])	Kd (RhPD-L1; [10])	hPD-L1 ka (hPD-L1 [6]; [9])	hPD-L1 kd (hPD-L1 [6]; [9])	Kd (hPD-L1 [6]; [11])	Substance	MFI (normalized) [2]	Tm (° C.) [4]	RhPD-L1 ka (RhPD-L1; [9])
–	–	–	–	6.2e-10 M	1e-09 M	4.5e-10 M	–	–	–	–	–	Z17978: maturated PD-L1 binding Z variant (VDAKYAKERNEAAYEILYLPNLTQSQKWAFIWKLDDDPSQSSELLSEAKKLNDSQAPK; Engineered PD-L1 binding polypeptide)	–	59 °C	–
5.8e+06 M⁻¹ s⁻¹	0.0056 s⁻¹	1.3e-09 M	0.97 nM	–	–	–	–	–	–	–	–	Z13198: primary PD-L1 binding Z variant (VDAKYAKERNAAAYEILTLPNLTNKQRWAFIWKLDDDPSQSSELLSEAKKLNDSQAPK; Engineered PD-L1 binding polypeptide)	0.89	–	–
–	–	–	–	1.5e-10 M	1.8e-09 M	3.5e-10 M	0.00038 s⁻¹	2.4e-10 M	1.9e+06 M⁻¹ s⁻¹	0.00044 s⁻¹	2.3e-10 M	Z18048: maturated PD-L1 binding Z variant (VDAKYAKERNSAAYEILYLPNLTNAQKWAFIWKLDDDPSQSSELLSEAKKLNDSQAPK; Engineered PD-L1 binding polypeptide)	–	60 °C	1.6e+06 M⁻¹ s⁻¹

From US11155596B2, “Polypeptide” (AFFIBODY AB, priority 2016, dated 2021)
